Hit rate of the full screen: of about 52,000 compounds, about 4,300 (8.3%) were called active. Rule as the data show it: active = survival mostly below about 52% (no sharp cut-off); inactive = mostly above about 56%. The list shows a part of the results.
test system: DeltatarO mutant; assay: growth inhibition of S. aureus wild type versus tarO mutant, primary screen, teichoic acid synthesis inhibitors, RN4220, OD600 (AID 463173); details: OD600, 18 h, stronger effect = lower value, screened at 18.75 µg/mL (by protocol)

Question: With CCOc1ccc(-n2c(SCc3ccc(C(=O)OC)o3)nc3c([nH]c4ccccc43)c2=O)cc1 as the molecule, how does the survival read?
Answer: inactive: 83%

Question: Which survival does the source give for CCCc1cc(=O)[nH]c(Nc2cccc(Cl)c2Cl)n1 here?
Answer: inactive: 68%

Question: CCN1C(=O)c2ccccc2Sc2ccc(NC(C)=O)cc21 was tested. Which survival did it give?
Answer: inactive: 87%

Question: For COc1cc(C(=O)Nc2cc(C)ccc2OCc2cc(=O)n3c(C)csc3n2)cc(OC)c1OC, which survival is on record?
Answer: inactive: 58%

Question: How did the survival turn out when COc1cc(C(=O)Nc2cc3c(cc2C)n(C)c(=O)c(=O)n3C)cc(OC)c1OC was run?
Answer: inactive: 84%

Question: Which survival does the source give for CC1Cc2ccccc2N1C(=O)CSc1nnc2c(n1)[nH]c1ccccc12 (stereo unspecified) here?
Answer: inactive: 70%

Question: For COc1ccccc1-c1noc(-c2ccc(N3CCC(C)CC3)c([N+](=O)[O-])c2)n1, which survival is on record?
Answer: inactive: 113%

Question: FC(F)(F)c1cc(-c2ccc3c(c2)OCO3)nc(=S)[nH]1 was tested. Which survival did it give?
Answer: inactive: 105%

Question: For CCC(=O)N1CCc2cc(S(=O)(=O)NC(Cc3ccccc3)C(=O)Nc3ccc(C)cc3)ccc21 (stereo unspecified), which survival is on record?
Answer: inactive: 64%

Question: Cc1ccc(NC(=O)c2sc3nc(-c4cc5ccccc5oc4=O)[nH]c(=O)c3c2C)c(C)c1 was tested. Which survival did it give?
Answer: active: 39%

Question: Which survival does the source give for CCCCNc1nc(Oc2ccc(=O)[nH]n2)nc(N(C)C)n1 here?
Answer: inactive: 81%

Question: With C=C(C)Cn1c(=O)c2c(nc3n2CCN3c2ccc(CC)cc2)n(C)c1=O as the molecule, how does the survival read?
Answer: inactive: 107%

Question: Which survival does the source give for O=C(NCCN1CCCCC1)c1ccc(/C=N/O)nc1 here?
Answer: inactive: 98%

Question: For CCOC(=O)c1cccc(NC(=O)c2cc3c(=O)n(Cc4ccccc4)ccc3nc2C)c1, which survival is on record?
Answer: inactive: 73%

Question: Fc1ccc(-n2cc(-c3ccccc3)c3c(NC4CCCCC4)ncnc32)cc1 was tested. Which survival did it give?
Answer: inactive: 85%

Question: Which survival does the source give for CCc1nn(CC(=O)NCCCN(CC)CC)c(=O)c2cc3sc(C)cc3n12 here?
Answer: inactive: 108%

Question: Which survival does the source give for CSc1ncc(C(=O)Nc2ccccc2C(=O)c2ccccc2)c(C(F)(F)F)n1 here?
Answer: inactive: 81%

Question: For COc1ccc(CCNC(=O)c2cc3c(-c4ccccc4F)nn(C)c3s2)c(OC)c1, which survival is on record?
Answer: inactive: 85%

Question: Which survival does the source give for CCCC(C(=O)NC1CCCC1)N(Cc1ccccc1)C(=O)Cn1nnc(-c2ccc(C)o2)n1 (stereo unspecified) here?
Answer: inactive: 66%

Question: With O=C(Nc1ccc(Br)cc1F)c1cc(S(=O)(=O)NCc2ccc(F)cc2)ccc1F as the molecule, how does the survival read?
Answer: inactive: 70%

Question: How did the survival turn out when COc1ccc(NC(=O)c2cc3c(s2)-c2c(C)cccc2OC3)c(OC)c1 was run?
Answer: active: 51%

Question: With COc1ccc(N2CCN(S(=O)(=O)c3ccc4c(c3)CC(C)N4C(C)=O)CC2)cc1 (stereo unspecified) as the molecule, how does the survival read?
Answer: inactive: 61%

Question: For CCOc1ccccc1NC(=O)c1cc2c(Cl)nc3ccccc3c2s1, which survival is on record?
Answer: active: 41%

Question: For COc1ccc(NC(=O)C2Cc3ccccc3N2C(=O)c2ccccc2)c(OC)c1 (stereo unspecified), which survival is on record?
Answer: inactive: 80%

Question: Which survival does the source give for O=C(CCC1N=C2c3ccccc3N=C(SCc3ccccc3F)N2C1=O)NC1CCCCC1 (stereo unspecified) here?
Answer: inactive: 71%

Question: With CCOc1cc(C2C(C(=O)OC)=C(C)NC3=C2C(=O)c2ccccc23)cc(Cl)c1O (stereo unspecified) as the molecule, how does the survival read?
Answer: active: 29%

Question: With Cc1ccc(-n2ncc3c(NCCCN4CCOCC4)ncnc32)cc1 as the molecule, how does the survival read?
Answer: inactive: 88%

Question: COc1cccc(-n2c(=O)c3c(C)c(C(=O)N(C)C)sc3n(Cc3ccc(F)cc3Cl)c2=O)c1 was tested. Which survival did it give?
Answer: inactive: 92%

Question: For COc1ccc(NC(=O)CN(Cc2ccccc2)S(=O)(=O)c2ccc(C)cc2)cc1Cl, which survival is on record?
Answer: inactive: 110%

Question: For Fc1ccc(-c2nc(Nc3cccc(Cl)c3)nc3c2COc2ccccc2-3)cc1, which survival is on record?
Answer: inactive: 90%

Question: CCn1c2ccccc2c2nnc(N3CCN(c4cc(C)ccc4C)CC3)nc21 was tested. Which survival did it give?
Answer: inactive: 80%

Question: For COc1ccc2c(C)c(CCC(=O)NCCc3ccccc3OC)c(=O)oc2c1, which survival is on record?
Answer: inactive: 77%

Question: COc1ccc(NCc2cc3cc4c(cc3n(CC(=O)Nc3ccc(F)cc3F)c2=O)OCO4)cc1 was tested. Which survival did it give?
Answer: inactive: 67%

Question: With CCC1CCCCN1C(=O)c1ccc2c(c1)N(Cc1cccc(Cl)c1)C(=O)c1ccccc1S2(=O)=O (stereo unspecified) as the molecule, how does the survival read?
Answer: inactive: 69%

Question: How did the survival turn out when O=C(CN(Cc1ccc2c(c1)OCO2)C(=O)CSc1nc2ccccc2o1)NC1CCCCC1 was run?
Answer: inactive: 83%

Question: For COC(=O)CCSc1nc2sc3c(c2c(=O)n1Cc1ccccc1)CCC(C(C)(C)C)C3 (stereo unspecified), which survival is on record?
Answer: inactive: 47%

Question: With CC1=C(C(=O)OC2CCCCCC2)C(c2c(F)cccc2Cl)CC(=O)N1 (stereo unspecified) as the molecule, how does the survival read?
Answer: inactive: 57%

Question: Which survival does the source give for COc1ccc(N(Cc2cccs2)C(=O)COc2cccc(Cl)c2)cc1 here?
Answer: active: 42%

Question: For Cc1ccc(Cl)cc1NC(=O)c1oc2c(c1C)-c1[nH]ncc1CC2, which survival is on record?
Answer: inactive: 101%

Question: Which survival does the source give for CCCCCCSc1n[nH]c(=O)[nH]c1=O here?
Answer: inactive: 78%

Question: How did the survival turn out when CCN(CCCNC(=O)c1c(C)oc2ncn(CC(C)C)c(=O)c12)Cc1ccccc1 was run?
Answer: inactive: 83%

Question: How did the survival turn out when Cn1c(=O)n(-c2ccc(F)c(Cl)c2)c(=O)c2sc3ccccc3c21 was run?
Answer: inactive: 83%

Question: How did the survival turn out when CCOC(=O)c1c(Nc2ccc(C)cc2)nnc(-c2ccccc2)c1-c1ccccc1 was run?
Answer: active: 1%

Question: How did the survival turn out when Cc1ccc2c(c1)nnn2C1CCN(C(=O)c2ccccc2)CC1 was run?
Answer: inactive: 101%

Question: Which survival does the source give for CCOc1ccccc1NS(=O)(=O)c1c(-c2ccc(C)cc2)csc1C(=O)OC here?
Answer: inactive: 94%

Question: Which survival does the source give for Cc1c2cnn(-c3ccccc3)c(=O)c2c(C)n1CCCC(=O)Nc1ccc(F)cc1F here?
Answer: inactive: 72%

Question: With O=C(c1ccc2c(Cl)c3c(nc2c1)CCCC3)N1CCN(c2ccccc2)CC1 as the molecule, how does the survival read?
Answer: active: 20%

Question: For CC(C)(C)C1CCc2onc(C(=O)Nc3sc4c(c3C(N)=O)CCCC4)c2C1 (stereo unspecified), which survival is on record?
Answer: active: 45%

Question: Cc1c(Cl)cccc1NC(=O)CCS(=O)(=O)c1ccc(Br)s1 was tested. Which survival did it give?
Answer: inactive: 75%

Question: NC(=O)c1cc(S(=O)(=O)NCC2CCC(C(=O)Nc3cccc(Cl)c3)CC2)cs1 (stereo unspecified) was tested. Which survival did it give?
Answer: inactive: 76%

Question: With Cc1ccc(NC(=O)CSc2nc3ccccc3c3nc(CCn4c(C)nc5ccccc54)nn23)cc1F as the molecule, how does the survival read?
Answer: inactive: 89%

Question: For O=C(Nc1ccc(F)c(F)c1)C1CCCN(S(=O)(=O)c2cccc3nonc23)C1 (stereo unspecified), which survival is on record?
Answer: inactive: 123%

Question: With CC1(C)Cc2c(ccc3ccccc23)C(=O)N1 as the molecule, how does the survival read?
Answer: inactive: 98%

Question: For O=C(NCn1nc(-c2ccccc2)nc1-c1ccccc1)c1cccnc1, which survival is on record?
Answer: inactive: 67%

Question: With CC1CC(C)CN(CCC(=O)Nc2ccccc2F)C1 (stereo unspecified) as the molecule, how does the survival read?
Answer: inactive: 100%

Question: Which survival does the source give for Cc1ccc(C)c(N2CCN(C(=O)CN3C(=O)CSc4c3c(C)nn4-c3ccccc3)CC2)c1 here?
Answer: inactive: 88%

Question: Which survival does the source give for Cc1cc2cc3c(cc2nc1SCCN1CCCC1)OCCO3 here?
Answer: inactive: 124%

Question: For COCCNC(=O)c1ccc2c(c1)N(Cc1cccc(Cl)c1)C(=O)c1ccccc1S2=O (stereo unspecified), which survival is on record?
Answer: inactive: 95%

Question: With Cc1ccc(C)c(NC(=O)CCNS(=O)(=O)c2ccc3c(c2)CCCC(=O)N3)c1 as the molecule, how does the survival read?
Answer: active: -4%

Question: For CN(C(=O)CSc1nnc2[nH]c(=O)cc(-c3ccccc3)n12)c1ccccc1, which survival is on record?
Answer: inactive: 107%

Question: CCOC(=O)c1cc(-c2ccccc2)n(CC(=O)NCc2ccccc2OC)c1C was tested. Which survival did it give?
Answer: inactive: 101%

Question: Which survival does the source give for Cc1ccc(NCC(=O)N=Nc2c(O)[nH]c3ccccc23)cc1 here?
Answer: inactive: 83%

Question: With Fc1ccc(CNc2ncnc3c2c(-c2ccccc2)cn3-c2ccccc2)cc1 as the molecule, how does the survival read?
Answer: inactive: 116%

Question: With O=c1cc(O)c2ccccc2[nH]1 as the molecule, how does the survival read?
Answer: inactive: 75%

Question: With Cn1c(=O)n(C)c2cc(S(=O)(=O)Nc3ccccc3C(=O)O)ccc21 as the molecule, how does the survival read?
Answer: inactive: 105%

Question: With Cc1ccc(CN2CCN(C3CCN(C(=O)OC(C)(C)C)CC3)C(=O)C2=O)cc1 as the molecule, how does the survival read?
Answer: inactive: 102%

Question: How did the survival turn out when CC(C)(C)c1ccc(C(=O)Nc2ccccc2C(=O)OCc2cc(=O)n3ccsc3n2)cc1 was run?
Answer: inactive: 73%

Question: For Cc1cc2nc3c(=O)n(C)c(=O)n(C)c3nc2cc1N=CN(C)C, which survival is on record?
Answer: inactive: 74%

Question: How did the survival turn out when CCOC(=O)CC(NC(=O)Cn1nnc(-c2ccccc2C)n1)c1ccc(OC)cc1 (stereo unspecified) was run?
Answer: inactive: 56%

Question: CCC(=O)N1CCc2cc(Br)cc(S(=O)(=O)CCC(=O)Nc3ccccc3C)c21 was tested. Which survival did it give?
Answer: inactive: 87%

Question: For COc1ccc(N(C)C(=O)NCc2noc3ccc(C)cc23)c(OC)c1, which survival is on record?
Answer: inactive: 90%

Question: For CCCNC(=O)Nc1cc(C(=O)NCc2cccc(OCC)c2)ccc1N1CCCC1, which survival is on record?
Answer: inactive: 67%

Question: Which survival does the source give for Cc1cc(C)c2c(=O)cc(CSCC(=O)Nc3nnc(C)s3)[nH]c2c1 here?
Answer: inactive: 90%

Question: Which survival does the source give for COc1ccccc1NC(=O)CSCc1cc(=O)c2c(C)cc(C)cc2[nH]1 here?
Answer: inactive: 80%

Question: How did the survival turn out when COc1ccc(C(=O)CCC(=O)Nc2ccccc2C)cc1 was run?
Answer: inactive: 102%

Question: Which survival does the source give for CCC(Sc1nncn2c1cc1sccc12)C(=O)Nc1cccc(OC)c1 (stereo unspecified) here?
Answer: inactive: 67%

Question: For CC(C)(C)C1CCc2nc(NC(=O)Cc3ccc(Cl)cc3)sc2C1 (stereo unspecified), which survival is on record?
Answer: active: 18%

Question: For CC(C)(C)C(=O)NC1CCN(CC(=O)Nc2ccccc2)CC1, which survival is on record?
Answer: inactive: 77%

Question: For CN1CCN(C(=O)/C=C\C(=O)O)CC1, which survival is on record?
Answer: inactive: 105%

Question: For CCCCc1noc2c1/C(=N\O)CC(c1ccccc1)C2 (stereo unspecified), which survival is on record?
Answer: inactive: 86%

Question: For Cc1cccc(-c2noc(C3CC(=O)N(c4ccc5c(c4)OCCO5)C3)n2)c1 (stereo unspecified), which survival is on record?
Answer: inactive: 105%

Question: How did the survival turn out when COc1ccc(NC(=O)Cn2c(C)c3cnn(-c4ccccc4)c(=O)c3c2C)c(OC)c1 was run?
Answer: inactive: 87%

Question: With Cc1cc(C)n(C(C)CC(=O)O)n1 (stereo unspecified) as the molecule, how does the survival read?
Answer: inactive: 95%

Question: How did the survival turn out when CCc1ccc(C(=O)c2cn(CC(=O)Nc3ccc(F)cc3)c3cc4c(cc3c2=O)OCO4)cc1 was run?
Answer: inactive: 124%

Question: How did the survival turn out when Cc1cc(OCC(=O)Nc2sc3c(c2C(N)=O)CCCC3)ccc1C(C)C was run?
Answer: inactive: 71%

Question: With COc1ccc(-c2nc(SCC(=O)NCCCc3ccccc3)n[nH]2)cc1 as the molecule, how does the survival read?
Answer: inactive: 89%

Question: How did the survival turn out when COc1ccc(NC(=O)CCc2c(C)nn(-c3ccc(N4CCOCC4)nn3)c2C)cc1Cl was run?
Answer: inactive: 81%

Question: With CCN(CC)CCCNC(=O)c1oc2c(c1C)-c1nn(Cc3ccc(Cl)cc3)cc1CC2 as the molecule, how does the survival read?
Answer: inactive: 90%

Question: Cc1ccc2occ(CC(=O)Nc3ccc(S(N)(=O)=O)cc3)c2c1 was tested. Which survival did it give?
Answer: inactive: 117%

Question: Which survival does the source give for O=C(CSc1ncn[nH]1)c1ccc(Cl)cc1 here?
Answer: inactive: 110%

Question: Which survival does the source give for CCOC(=O)CSc1nc2cc3c(cc2c(=O)n1CCCC(=O)NCc1ccc2c(c1)OCO2)OCO3 here?
Answer: inactive: 83%

Reference: PubChem BioAssay AID463173 (ICCB-Longwood Screening Facility, Harvard Medical School, 2010)
